# Test results published in PubChem BioAssay AID1347165 (National Center for Advancing Translational Sciences (NCATS), 2019).
# Where “and” joins values, the source holds several entries; their conditions need not be identical. Identical values can stand only once. Out of some 220,000 compounds screened, about 5,700 (2.6%) were called active. Inconclusive results, whose numbers are uncertain, are shown with a selection of clear calls. Calls follow the shape of the dose curve; as a rule, active = well fitted inhibition curve with a large enough effect; inconclusive = small, poorly fitted or top-dose-only effect; inactive = no such curve, though single readings can be large or run the other way. Potencies beside an inconclusive call are fits to weak or partial responses and may not hold up.
# Molecular target: Lysine-specific demethylase 5B (Homo sapiens) (UniProt Q9UGL1)
# Assay: Primary screen for KDM5B Histone Demethylases FDH-coupled qHTS; also: nearly all actives have a fitted effect of over 70% in size
# Conditions: FDH-coupled NADH fluorescence (FDH is formaldehyde dehydrogenase); series mostly up to 57.7 µM
# How it was run: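 Here, H3K4me3 peptide (12.5 µM in substrate mix) is demethylated by KDM5BΔAP, 200 nM final, after 10 min compound exposure. Formaldehyde product is coupled through FDH (0.25 U/mL in mix) to NADH fluorescence; 30-min ΔRFU feeds dose-response curves.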
# Potency is read from the fitted curve at half-maximal effect; tags tell the direction and shape of the fitted curve.
# Sequence of UniProt Q9UGL1 (Q9UGL1 whole entry, looked up): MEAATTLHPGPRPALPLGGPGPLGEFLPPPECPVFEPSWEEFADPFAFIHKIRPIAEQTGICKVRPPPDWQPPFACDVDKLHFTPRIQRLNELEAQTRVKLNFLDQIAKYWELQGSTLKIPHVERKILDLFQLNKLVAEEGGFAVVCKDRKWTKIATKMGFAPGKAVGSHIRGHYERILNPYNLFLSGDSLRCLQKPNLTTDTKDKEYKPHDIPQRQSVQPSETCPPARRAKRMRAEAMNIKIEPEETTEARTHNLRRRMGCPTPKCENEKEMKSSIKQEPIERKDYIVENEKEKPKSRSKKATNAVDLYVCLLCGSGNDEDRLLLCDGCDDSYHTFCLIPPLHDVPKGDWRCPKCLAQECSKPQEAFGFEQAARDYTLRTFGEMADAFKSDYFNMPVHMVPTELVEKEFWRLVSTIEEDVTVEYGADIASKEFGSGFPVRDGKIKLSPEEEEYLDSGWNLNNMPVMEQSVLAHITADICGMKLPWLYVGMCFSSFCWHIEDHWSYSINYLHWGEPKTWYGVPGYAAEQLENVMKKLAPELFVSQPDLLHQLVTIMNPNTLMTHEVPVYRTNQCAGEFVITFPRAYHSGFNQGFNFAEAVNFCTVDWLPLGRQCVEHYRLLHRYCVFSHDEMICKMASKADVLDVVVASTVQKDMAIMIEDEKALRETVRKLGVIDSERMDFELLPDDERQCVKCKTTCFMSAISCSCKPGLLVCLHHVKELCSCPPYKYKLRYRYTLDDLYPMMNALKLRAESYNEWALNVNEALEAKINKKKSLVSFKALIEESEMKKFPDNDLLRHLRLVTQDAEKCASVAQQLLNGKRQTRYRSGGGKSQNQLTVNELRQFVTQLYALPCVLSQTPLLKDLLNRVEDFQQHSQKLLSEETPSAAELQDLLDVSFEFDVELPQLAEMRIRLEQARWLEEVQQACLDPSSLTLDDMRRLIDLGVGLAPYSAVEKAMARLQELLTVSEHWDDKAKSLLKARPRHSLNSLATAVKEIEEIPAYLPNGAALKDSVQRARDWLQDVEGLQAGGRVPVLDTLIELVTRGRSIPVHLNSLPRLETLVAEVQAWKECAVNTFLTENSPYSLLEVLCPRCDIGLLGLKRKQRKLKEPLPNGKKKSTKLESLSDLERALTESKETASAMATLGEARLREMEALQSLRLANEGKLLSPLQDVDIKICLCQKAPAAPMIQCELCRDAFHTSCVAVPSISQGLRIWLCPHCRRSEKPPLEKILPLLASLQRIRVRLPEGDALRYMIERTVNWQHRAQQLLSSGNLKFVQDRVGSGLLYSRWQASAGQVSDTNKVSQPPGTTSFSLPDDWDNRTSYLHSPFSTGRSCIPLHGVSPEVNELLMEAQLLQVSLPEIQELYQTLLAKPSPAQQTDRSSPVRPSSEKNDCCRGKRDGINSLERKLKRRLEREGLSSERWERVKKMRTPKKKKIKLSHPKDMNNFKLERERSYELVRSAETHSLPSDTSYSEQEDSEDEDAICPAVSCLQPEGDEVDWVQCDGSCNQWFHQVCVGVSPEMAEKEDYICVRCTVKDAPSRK
row,SMILES,Potency
1,CN(Cc1nc2ccccc2o1)Cc1ccccc1Cl,inactive
2,COCCCNC(=O)c1cnc2c(c1)N(C(=O)Cc1cn(C)c3ccccc13)CCC2,inactive
3,CCNc1c(NC(=O)Nc2ccccc2Cl)c(=O)oc2ccccc12,inactive
4,O=C(NCc1ccccc1F)C1CCN(Cc2cc3ccccc3n2Cc2cccc(Cl)c2)CC1,"inconclusive: 56.2 µM [inhibitor, single point]"
5,CC(=O)c1cc(-c2ccc(F)cc2)n(CC(=O)NC(C)c2ccccc2)c1C (centres undefined),inactive
6,Cc1ccccc1NC(=O)Nc1ccc2nc(N3CCN(C)CC3)cc(C)c2c1,"inconclusive: 3.16 µM [inhibitor, full curve, poor fit]"
7,Cc1cccn2c(=O)c(/C=C(\C#N)c3nc4ccccc4s3)c(Oc3ccc(Br)cc3)nc12,"inconclusive: 17.8 µM [inhibitor, partial curve, poor fit]"
8,O=C(NCC1CC1)c1cc(C2CC2)nc2onc(C3CCCN3)c12 (centres undefined),active: 89.1 µM
9,O=C(CCc1ncc(-c2ccccc2)o1)N1CCc2ccccc21,inactive
10,Nc1nccnc1C(=O)NCc1cccc(C(F)(F)F)c1,inactive
11,CCc1ccccc1NC(=O)N1CCC(Oc2ncccc2NC)C1 (centres undefined),"inconclusive: 12.6 µM [inhibitor, partial curve]"
12,CC(Nc1ccc(-c2ccccc2)cc1)C(=O)Nc1ccc(Cl)cn1 (centres undefined),inactive
13,O=C(NC1CCCCC1)C1CCCc2ccccc21 (centres undefined),inactive
14,Cc1ccc(C)c(N2CCN(c3nccn4nc(-c5ccc(Br)cc5)cc34)CC2)c1,"inconclusive: 14.1 µM [inhibitor, partial curve, poor fit]"
15,Cc1cnc(CCNS(=O)(=O)c2cn(C)cn2)n1C1CCC1,"inconclusive: 3.55 µM [inhibitor, partial curve, poor fit]"
16,CC(C)S(=O)(=O)N1CCC(Nc2cccnc2)C1 (centres undefined),active: 8.91 µM
17,CCCCc1nn(CC(=O)NCC2Cc3ccccc3CN2C)c(=O)n1CC (centres undefined),"inconclusive: 28.2 µM [inhibitor, single point]"
18,CS(=O)(=O)c1cnc(NCCCn2cccn2)nc1C1CCCNC1 (centres undefined),"inconclusive: 25.1 µM [inhibitor, single point]"
19,O=C(NCc1ccc2c(c1)OCO2)c1ccc(NC(=O)c2nsc3ccccc23)cc1,"inconclusive: 22.4 µM [inhibitor, single point]"
20,CCCCc1cc(=O)oc2cc(C)cc(OCc3nn[nH]n3)c12,"inconclusive: 25.1 µM [inhibitor, partial curve, poor fit]"
21,O=C(Nc1cnc(-c2ccc(Cl)cc2)nc1)c1cccc(F)c1,inactive
22,Cn1ccnc1-c1ccc(N2CC[C@@]3(O)CCN(S(C)(=O)=O)C[C@H]3C2)nn1,active: 31.6 µM
23,O=C(CSc1ncc(-c2ccc(F)cc2)o1)Nc1cc(F)ccc1F,inactive
24,Cn1nccc1C(=O)NC1CCCN(c2cc(-c3ccc(Cl)cc3)[nH]n2)C1 (centres undefined),"inconclusive: 20 µM [inhibitor, partial curve, poor fit]"
25,COc1ccccc1CCNC(=O)C(=O)NCc1n[nH]c(=O)c2ccccc12,inactive

row,SMILES,Potency
1,O=C1NC2(CCN(C(=O)c3ccccc3F)C2)N=C1c1ccccn1 (centres undefined),"inconclusive: 35.5 µM [inhibitor, partial curve]"
2,Cc1cccc(-c2ccc3c(c2)C(=O)N2CC[C@H](NS(=O)(=O)c4cccs4)[C@H]2C(=O)N3)c1C,"inconclusive: 39.8 µM [inhibitor, partial curve, poor fit]"
3,COCCn1ccc2c(OCC(=O)Nc3ccccc3)cccc2c1=O,"inconclusive: 28.2 µM [inhibitor, partial curve, poor fit]"
4,Cc1ccc(-c2cn3c(n2)CO[C@@H](CNCc2ccc(-c4ccccn4)cc2)C3)cc1,inactive
5,CCOC(=O)C1CCN(C(=O)C2CCN(c3nnc(C)c4c(C)n(-c5ccccc5)nc34)CC2)CC1,"inconclusive: 35.5 µM [inhibitor, single point]"
6,CCCC(=O)Nc1cc(C(=O)NCc2ccc(OC)cc2)ccc1S(=O)(=O)c1ccc(Cl)cc1,"inconclusive: 44.7 µM [inhibitor, single point]"
7,O=C(Nc1ccc2oc(-c3cccc4ccccc34)nc2c1)c1ccc2c(c1)OCCO2,"inconclusive: 1.58 µM [inhibitor, partial curve, poor fit]"
8,COc1ccc2cc(CNC(=O)CNC(=O)c3ccc(C)cc3)ccc2c1,"inconclusive: 39.8 µM [inhibitor, single point]"
9,CCOC(=O)c1ccccc1NC(=O)N1CCCN(S(=O)(=O)c2ccc3c(ccn3CC)c2)CC1,"inconclusive: 35.5 µM [inhibitor, partial curve, poor fit]"
10,O=C(C1CCCC1)N1CC2(CCN(Cc3cccnc3)C2)Cc2ccccc21 (centres undefined),inactive
11,CCNC(=S)NNC(=O)C(C)(C)O,inactive
12,CCOc1ccc(-c2nc3c(C#N)c[nH]n3c2NC2CCCCC2)cc1,"inconclusive: 17.8 µM [inhibitor, partial curve, poor fit]"
13,OCCCNC(=S)Nc1ccc(Br)cc1,inactive
14,Cc1ccc(CNC(=O)Cn2c(=O)n(-c3ccc(C)c(F)c3)c(=O)c3sc4ccccc4c32)cc1,"inconclusive: 0.891 µM [inhibitor, full curve, poor fit]"
15,CN(C)c1ncc2c(n1)C(C)(C(=O)NCc1cccc(Cl)c1)CCC2 (centres undefined),active: 39.8 µM
16,CN1C[C@@H](NC(=O)Nc2ccccc2)C[C@H]1c1nc(-c2ccccc2)no1,active: 35.5 µM
17,Cc1ccc(/C=N/Nc2ccc(Cl)c(Cl)c2)cc1,"inconclusive: 39.8 µM [inhibitor, single point]"
18,Cc1cc(C)cc(NC(=O)N2CCCC(c3noc(COc4ccccc4F)n3)C2)c1 (centres undefined),inactive
19,COc1ccc(CC(=O)N[C@H]2C[C@@H](c3nc(-c4ccc5ccccc5c4)no3)N(C)C2)cc1,"inconclusive: 35.5 µM [inhibitor, single point]"
20,Cc1cccc(NC(=O)CN2C(=O)COc3ccc(S(=O)(=O)N4CCC(C)CC4)cc32)c1C,"inconclusive: 17.8 µM [inhibitor, partial curve, poor fit]"
21,CCN(CC)CCCNC(=O)c1nn(-c2ccc(OC)c(Cl)c2)c(=O)c2c1c1ccccc1n2C,"inconclusive: 31.6 µM [inhibitor, single point]"
22,c1c[nH]c(-c2nc3ccncc3[nH]2)c1,active: 141 µM and active: 31.6 µM
23,CCc1cccc(Nc2ccc3cc(S(=O)(=O)N4CCCC4)ccc3n2)c1,"inconclusive: 28.2 µM [inhibitor, partial curve, poor fit]"
24,CN(C)CCN(Cc1ccc(F)cc1)C(=O)c1cccc(S(C)(=O)=O)c1,inactive
25,COc1cc2ccccc2cc1C(=O)Nc1cccc(-c2nc3cc(C)ccc3o2)c1C,"inconclusive: 28.2 µM [inhibitor, partial curve, poor fit]"

row,SMILES,Potency
1,CCNc1ncnc2sc3c(c12)CCN(C(=O)CCOC)C3,"inconclusive: 28.2 µM [inhibitor, partial curve, poor fit]"
2,COC(=O)c1cc2oc3ccccc3c2n1Cc1c(C)cc(C)cc1C,"inconclusive: 31.6 µM [inhibitor, partial curve, poor fit]"
3,Cc1nc(-c2c3n(c(=O)n(CC(=O)Nc4ccc(C)c(C)c4)c2=O)CCCC3)no1,inactive
4,COc1ccc(-c2noc([C@@H]3CCCN3C(=O)Cc3ccccc3Cl)n2)cc1OC,active: 28.2 µM
5,O=C(Cn1nc(-c2cccs2)ccc1=O)NC1CCCc2c1[nH]c1c(Cl)cccc21 (centres undefined),inactive
6,CN(C)C[C@@H]1CN(c2ccccn2)C[C@H]1NC(=O)c1cccs1,"inconclusive: 17.8 µM [inhibitor, partial curve, poor fit]"
7,Cc1cc(C)c(NC(=O)CSc2nc3ccncc3[nH]2)c(C)c1,inactive
8,CCC1CCc2c(sc3ncn4nc(Cn5nc(C(F)F)cc5C)nc4c23)C1 (centres undefined),inactive
9,CC1(c2ccccc2)CCCN(Cc2nnc(-c3cccnc3)o2)C1 (centres undefined),"inconclusive: 8.91 µM [inhibitor, partial curve]"
10,COc1ccc(S(=O)(=O)Oc2ccc3oc(=O)c(-c4ccccc4)c(C)c3c2)cc1,"inconclusive: 31.6 µM [inhibitor, single point]"
11,CCOC(=O)C(CC(C)C)NC(C)=O (centres undefined),inactive
12,O=C(O)CC(O)(c1ccccc1)c1ccccc1,inactive
13,CONC(=O)COCc1nc2ccccc2s1,inactive
14,COc1ccc(CNC(=O)c2ccc3nc(C(C)C)oc3c2)cc1OC,inactive
15,CCn1cc(S(=O)(=O)N2CCCC2C(=O)O)c(C)n1 (centres undefined),inactive
16,CCCNC(=O)NCC1c2cc(OC)c(OC)cc2CCN1C(=O)NC(C)C (centres undefined),active: 22.4 µM
17,COc1ccc(-c2nc(-c3nnn4c3COC(c3ccc(C)cc3)C4)no2)cc1F (centres undefined),"inconclusive: 2 µM [inhibitor, full curve]"
18,Cc1ccc(OCC(=O)Nc2ccc3nc(SCCOc4ccccc4)sc3c2)cc1,inactive
19,O=S(CCN1CCN(Cc2c(F)cccc2Cl)CC1)c1ccccc1 (centres undefined),inactive
20,Cc1[nH]c(SCC(=O)NCC2(c3ccccc3)CC2)nc1Cc1ccccc1,inactive
21,c1ccc(CCc2nnc(CC3CCCCC3)s2)cc1,inactive
22,COc1ccc(C(=O)Nc2cccc(-c3nnc4n3CCCC4)c2)cc1,inactive
23,Cc1cc(O)c2c(C)c(CC(=O)NCc3cccc(Cl)c3)c(=O)oc2c1,"inconclusive: 28.2 µM [inhibitor, single point]"
24,CCOc1ccc(CCNC(=O)c2cc3c(s2)-c2c(C)cccc2OC3)cc1,"inconclusive: 1.58 µM [inhibitor, partial curve, poor fit]"
